# Results as given in PubChem BioAssay AID720709 (National Center for Advancing Translational Sciences (NCATS), 2013).
# In all, about 360,000 compounds went through this assay and about 520 (0.14%) were called active. This list was built around the results that the source calls inconclusive (neither active nor inactive); the mix of calls is not that of the screen. Calls follow the shape of the dose curve; as a rule, active = well fitted inhibition curve with a large enough effect; inconclusive = small, poorly fitted or top-dose-only effect; inactive = no such curve, though single readings can be large or run the other way. No potency is given beside an inconclusive call; the fits are too rough.
# Target: Rap guanine nucleotide exchange factor 3 (Homo sapiens) (UniProt O95398)
# Experiment: qHTS for Antagonist of cAMP-regulated guanine nucleotide exchange factor 3 (EPAC1): primary screen; also: nearly all actives have a fitted effect of over 50% in size;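 as to activity change, negative = inhibition: plate controls were vehicle for no effect and positive control for full effect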
# Conditions: EPAC1 GEF assay, Rap1b-BODIPY-GDP exchange fluorescence; activity change, negative = inhibition: at 115 µM (top of the series)
# Potency is read from the fitted curve at half-maximal effect; tags tell the direction and shape of the fitted curve.
# UniProt O95398, sequence (O95398 whole entry, looked up): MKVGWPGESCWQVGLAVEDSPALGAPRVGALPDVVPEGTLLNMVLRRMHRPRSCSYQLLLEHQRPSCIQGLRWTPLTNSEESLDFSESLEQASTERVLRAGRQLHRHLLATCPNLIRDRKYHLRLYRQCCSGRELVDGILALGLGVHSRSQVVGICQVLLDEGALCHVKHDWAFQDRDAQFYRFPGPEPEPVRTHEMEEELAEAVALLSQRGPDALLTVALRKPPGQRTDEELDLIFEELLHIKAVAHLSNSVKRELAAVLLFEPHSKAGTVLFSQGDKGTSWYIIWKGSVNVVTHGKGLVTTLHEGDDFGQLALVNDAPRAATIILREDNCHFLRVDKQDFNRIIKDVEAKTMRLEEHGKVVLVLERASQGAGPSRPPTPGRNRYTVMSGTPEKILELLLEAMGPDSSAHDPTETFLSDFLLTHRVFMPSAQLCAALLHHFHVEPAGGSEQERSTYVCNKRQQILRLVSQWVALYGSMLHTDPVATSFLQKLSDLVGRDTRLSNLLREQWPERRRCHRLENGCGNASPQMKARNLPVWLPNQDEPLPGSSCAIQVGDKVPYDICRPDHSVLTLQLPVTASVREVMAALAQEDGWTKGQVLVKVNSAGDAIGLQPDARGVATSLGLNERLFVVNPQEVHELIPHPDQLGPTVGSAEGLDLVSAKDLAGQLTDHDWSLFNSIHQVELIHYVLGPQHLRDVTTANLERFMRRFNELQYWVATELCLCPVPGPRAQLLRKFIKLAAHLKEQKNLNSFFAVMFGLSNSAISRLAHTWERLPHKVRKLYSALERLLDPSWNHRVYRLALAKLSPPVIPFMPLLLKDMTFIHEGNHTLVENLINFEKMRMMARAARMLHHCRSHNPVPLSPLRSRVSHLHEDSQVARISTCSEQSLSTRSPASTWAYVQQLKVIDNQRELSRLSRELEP
Compound,Potency,"activity change, negative = inhibition"
COc1ccc(Cl)cc1N(CC(=O)NCCSc1ccccn1)S(=O)(=O)c1ccccc1,"inconclusive [inhibitor, single point]",
Cc1nc2ccccc2n1-c1ccccc1,inactive,
O=C(c1ccccc1)C1CC=CCC1C(=O)c1ccccc1 (stereo unspecified),"inconclusive [inhibitor, partial curve]",
O=C(Nc1ccccc1C(=O)Nc1cccnc1)c1ccccc1,"inconclusive [inhibitor, single point]",
Cc1cc(C)c2cc(CN(CC3CCCO3)C(=S)NCc3ccco3)c(=O)[nH]c2c1 (stereo unspecified),"inconclusive [inhibitor, full curve, poor fit]",
N#Cc1c(-c2ccc(Cl)cc2)cc(-c2cccs2)nc1SCC(=O)O,"inconclusive [inhibitor, partial curve]",
CC(=O)Oc1cc(C(=O)OCC(=O)N2CCc3ccccc3C2)cc(OC(C)=O)c1OC(C)=O,,inconclusive: -16.3% [inhibitor]
COc1ccc(CCN(C)C(=O)c2cc(-c3ccc(C)cc3)nc3ccccc23)cc1OC,"inconclusive [inhibitor, partial curve, poor fit]",
CNC(=O)C1CC(=O)N(c2ccc(OCC(=O)Nc3ccccc3)cc2)C1 (stereo unspecified),"inconclusive [inhibitor, single point]",
CSc1nc(NCCOCCO)c2sc3nc(-c4ccco4)c4c(c3c2n1)CCC4,inactive,
Cc1ccc(C(C)C)c(OCc2ccc(C(=O)N/N=C/c3cccc(O)c3O)cc2)c1,"inconclusive [inhibitor, single point]",
Fc1cccc(NC(=S)Nc2cccc3ccccc23)c1,"inconclusive [inhibitor, single point]",
O=[N+]([O-])c1ccc(S(=O)(=O)NN=Cc2ccc(Cl)c(Cl)c2)cc1,inactive,
COc1cc(/C=N/NC(=O)c2cc(-c3ccco3)nc3ccccc23)cc(OC)c1O,"inconclusive [inhibitor, single point]",
CCc1ccc(-c2cc(C)no2)cc1S(=O)(=O)NCCCN1CCN(c2ccccc2)CC1,"inconclusive [inhibitor, single point]",
O=C(Cc1nnc(NC(=O)c2ccccc2)s1)N/N=C\c1ccc(O)c(O)c1,"inconclusive [inhibitor, single point]",
CC1(C(=O)NS(=O)(=O)c2cccc(OC(F)F)c2)CCN1C(=O)C1CCCCC1 (stereo unspecified),inactive,
COc1ccc(CCN2C(=O)CSC2=Nc2ccc(C(C)C)cc2)cc1OC,"inconclusive [inhibitor, single point]",
Cc1ccc2c(CC(=O)Nc3ccc4nc(N5CCOCC5)sc4c3)coc2c1,inactive,
COc1ccc(NS(=O)(=O)c2ccc(OC)c(NC(=O)CCC3CCCC3)c2)cc1,"inconclusive [inhibitor, full curve, poor fit]",
COc1ccc(NC(=O)CN2C(=O)NC(C)(c3ccccc3)C2=O)c(OC)c1 (stereo unspecified),inactive,
COc1ccc(N/C=C(\[N+](=O)[O-])S(=O)(=O)c2ccccc2)cc1,inactive,

Compound,Potency,"activity change, negative = inhibition"
COc1ccc(-c2cc3cc(OC)c(OC)cc3c(C)n2)cc1,"inconclusive [inhibitor, single point]",
COc1ccc(NC(=O)CCC2CCCCC2)cc1S(=O)(=O)N1CCCCC1,"inconclusive [inhibitor, partial curve]",
CCn1c(=S)[nH]c2ccccc21,"inconclusive [inhibitor, single point]",
COc1ccc(/C=N/NC(=O)c2ccn[nH]2)cc1CSc1ccccn1,"inconclusive [inhibitor, full curve]",
CC1CCC/C(=C\Nc2ccc(O)cc2)C1=O (stereo unspecified),"inconclusive [inhibitor, partial curve]",
Oc1ccc(/C=N/N(c2ccccc2)c2ccccc2)cc1O,"inconclusive [inhibitor, single point]",
Fc1ccc(/C=C2\CCCC3=C2Nc2ncnn2C3c2ccc(F)cc2)cc1 (stereo unspecified),"inconclusive [inhibitor, full curve]",
CN(CC(=O)Nc1ccc(Cl)c(C(F)(F)F)c1)C(=O)c1ccc(OCC2CCCO2)cc1 (stereo unspecified),"inconclusive [inhibitor, partial curve, poor fit]",
CC(C(=O)Nc1ccc(S(=O)(=O)N2CCOCC2)cc1)N1CCN(c2ccccn2)CC1 (stereo unspecified),"inconclusive [inhibitor, partial curve]",
Cc1ccc(NC(=S)N/N=C/c2ccc([N+](=O)[O-])s2)cc1,inactive,
CCc1ccc(CN2CCC(n3nccc3NC(=O)c3ccccc3Cl)CC2)cc1,inactive,
COc1ccc(N2CCN(CCNC(=O)Nc3ccc(Cl)cc3)CC2)cc1,inactive,
Cc1cccc(OCCC(=O)NNC(=O)c2ccoc2C)c1,"inconclusive [inhibitor, full curve, poor fit]",
N#Cc1ccc(NC(=O)COC(=O)CCc2ccc(S(=O)(=O)N3CCCCC3)cc2)cc1,"inconclusive [inhibitor, partial curve]",
C[C@H](CO)N1C[C@H](C)[C@@H](CN(C)C(=O)c2ccc(N3CCN(C)CC3)cc2)OCc2cnnn2CCCC1=O,"inconclusive [inhibitor, single point]",
CNC(=O)NC(=O)Cn1cnc2sc(-c3ccccc3)cc2c1=O,"inconclusive [inhibitor, single point]",
COc1ccc(OC)c(C2C3=C(N=c4s/c(=C\c5cccc(O)c5)c(=O)n42)c2ccccc2CC3)c1 (stereo unspecified),"inconclusive [inhibitor, partial curve]",
CN1c2ccccc2N(C)C1(C)c1ccccc1,inactive,
CCOC(=O)c1ccc(S(=O)(=O)N2CCN(CCc3ccncc3)CC2)cc1,"inconclusive [inhibitor, single point]",
Cc1cccc(NC(=O)NC2CC3CCC(C2)N3Cc2ccco2)c1 (stereo unspecified),"inconclusive [inhibitor, single point]",
Cc1ccc2c(c1C)NC(C(=O)O)C1CC=CC21 (stereo unspecified),"inconclusive [inhibitor, partial curve]",
COc1ccc(-c2cc(C(=O)c3c(N)n(C)c(=O)n(C)c3=O)c3ccccc3n2)cc1OC,"inconclusive [inhibitor, partial curve]",

Compound,Potency,"activity change, negative = inhibition"
C#CCOc1ccc(C2C(C#N)=C(N)Oc3cc(O)ccc32)cc1 (stereo unspecified),"inconclusive [inhibitor, single point]",
COc1ccccc1NC(=O)CNC(=O)CC12CC3CC(CC(C3)C1)C2,"inconclusive [inhibitor, partial curve, poor fit]",
CCOC(=O)C1=C(C)N=c2s/c(=C\c3ccc(OCC(=O)O)cc3)c(=O)n2C1c1ccccc1 (stereo unspecified),"inconclusive [inhibitor, single point]",
CC(=O)Nc1ccc(S(=O)(=O)Nc2nc3ccc([N+](=O)[O-])cc3s2)cc1,"inconclusive [inhibitor, partial curve]",
CCOC(=O)C1CCN(C(=O)Cn2nc(C)n3c(cc4cc(C)ccc43)c2=O)CC1,"inconclusive [inhibitor, full curve, poor fit]",
Cc1ccsc1-c1nc(CSCC(=O)N2CCN(c3ccccc3)CC2)c(C)o1,,inconclusive: -7.66% [inhibitor]
COc1ccc2cc(CNCCOCCOCCNCc3ccc4cc(OC)ccc4c3)ccc2c1,inactive,
c1cncc(CNc2nc(-c3cccnc3)nc3ccccc23)c1,inactive,
N#Cc1c(NC(=O)c2ccc(Br)o2)n(-c2ccccc2)c2nc3ccccc3nc12,"inconclusive [inhibitor, partial curve]",
COc1cc(/C=C/C(=O)c2ccc(O)cc2)ccc1OCC#N,"inconclusive [inhibitor, single point]",
OCc1cn(-c2ccccc2)nn1,"inconclusive [inhibitor, single point]",
Cc1c(Cl)cccc1NC(=O)CCCn1cnc([N+](=O)[O-])n1,"inconclusive [inhibitor, partial curve, poor fit]",
S=c1[nH]nc(C2CC2c2ccc(Cl)cc2)n1-c1ccc(Cl)cc1 (stereo unspecified),"inconclusive [inhibitor, full curve, poor fit]",
CCCc1cc(=O)[nH]c(SCC(=O)N2CCOCC2)n1,inactive,
Cc1ccccc1C(=O)/C=C1/SCC(=O)N1C,inactive,
O=C(/C=C/c1ccc([N+](=O)[O-])cc1)Nc1cccc(C(=O)Nc2ccccc2C(=O)O)c1,active: 28.2 µM,
CCc1nc2c(OCc3ccc(C(=O)OC)cc3)cccn2c1N(C)C(=O)C(C)C,"inconclusive [inhibitor, single point]",
CC1(C)S/C(=N/N=C/c2ccco2)NC1=O,"inconclusive [inhibitor, single point]",
N#Cc1ccc(C(=O)CSc2n[nH]c(=O)n2-c2cccnc2)cc1,"inconclusive [inhibitor, full curve, poor fit]",
CC(=O)c1ccc(OCCCC(=O)Nc2ccc(C)c(S(=O)(=O)N3CCOCC3)c2)cc1,"inconclusive [inhibitor, full curve]",
Cc1ccccc1-c1nnc(SCC(=O)N(C)C2CCS(=O)(=O)C2)n1C (stereo unspecified),"inconclusive [inhibitor, full curve, poor fit]",
NC(=O)c1c(NC(=O)c2ccncc2)sc2c1CCCC2,"inconclusive [inhibitor, partial curve]",
